# Experimental data taken from the supplement of paper PMC9446081.
# The campaign covered roughly 39,000 compounds. About 220 (0.56%) showed activity. The list shows a part of the results.
# System: Escherichia coli K-12 BW25113
# Assay: relative growth (OD600 normalised to plate interquartile mean) (fraction); higher = less growth inhibition, active = 0.2 or less
# Conditions: 50 µM; LB; incubation time: overnight (16-24 h)
# 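Further: static incubation at 37 °C against the wild-type strain, values averaged over two biological replicates.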
row,SMILES,relative growth
1,C[C@@H]1CN([C@@H](C)CO)C(=O)Cc2cc(NS(C)(=O)=O)ccc2O[C@@H]1CN(C)C(=O)Nc1ccc(F)cc1,inactive: 0.993
2,CC[C@@H](C)SSc1ncc[nH]1,inactive: 0.906
3,COc1ccc(NC(=O)N(C)C[C@H]2OCCCC[C@@H](C)Oc3ccc(NS(=O)(=O)c4ccc(OC)cc4)cc3C(=O)N([C@@H](C)CO)C[C@H]2C)cc1,inactive: 1.04
4,Cn1cnc(S(=O)(=O)N[C@@H]2C=C[C@@H](CC(=O)NCC3CC3)O[C@@H]2CO)c1,inactive: 1.01
5,COCC#Cc1ccc2c(c1)O[C@@H](CN(C)Cc1ccc(F)cc1)[C@@H](C)CN([C@H](C)CO)S2(=O)=O,inactive: 1.03
6,NCCn1nc([C@H]2CCN(C(=O)c3csc4c3CCCC4)C2)c2nccnc21,inactive: 1.02
7,Cc1ccc(S(=O)(=O)N(C)C[C@H]2OCCCC[C@H](C)Oc3ccc(NC(=O)CCC(F)(F)F)cc3C(=O)N([C@@H](C)CO)C[C@@H]2C)cc1,inactive: 0.99
8,Cc1ccc(S(=O)(=O)N(C)C[C@H]2OCCCC[C@@H](C)Oc3ccc(NC(=O)c4ccccc4)cc3C(=O)N([C@@H](C)CO)C[C@@H]2C)cc1,inactive: 1.05
9,C[C@H](CO)N1C[C@H](C)[C@H](CN(C)Cc2ccc(C(F)(F)F)cc2)OCc2ccccc2-c2c(n(C)c3ccccc23)C1=O,inactive: 1.04
10,Cc1ccc(S(=O)(=O)Nc2ccc3c(c2)C(=O)N([C@@H](C)CO)C[C@H](C)[C@@H](CN(C)S(=O)(=O)c2ccccc2)O3)cc1,inactive: 1
11,C[C@@H]1CN([C@@H](C)CO)C(=O)c2cc(NC(=O)Cc3ccccc3)ccc2O[C@@H](C)CCCCO[C@H]1CN(C)Cc1ccc(C(F)(F)F)cc1,inactive: 1.02
12,C[C@H]1[C@H]2[C@H](Cc3ccccc3)NC(=O)[C@]23C(=O)N[C@H](Cc2ccccc2)C(=O)N2CCC[C@H]2C(=O)NC/C=C\C/C=C/[C@@H]3[C@@H]2O[C@]12C,inactive: 1.01
13,Cn1cnc(CCNC(=O)C[C@H]2CC[C@@H]3[C@H](COC[C@H](O)CN3C(=O)Nc3ccc(Cl)cc3)O2)c1,inactive: 0.957
14,CC(C)NC(=O)Nc1ccc2c(c1)C(=O)N([C@H](C)CO)C[C@H](C)[C@H](CN(C)S(=O)(=O)c1ccccc1)O2,inactive: 0.975
15,COc1ccc2c3c([nH]c2c1)[C@H](CO)N(C[C@]13CCN(CC1)S(=O)(=O)C)C(=O)Nc1ccc(cc1)F,inactive: 1.01
16,C[C@H]1CN([C@@H](C)CO)C(=O)c2cccc(NC(=O)c3ccncc3)c2O[C@@H]1CN(C)Cc1ccncc1,inactive: 0.998
17,CO[C@@H]1CN(C)C(=O)c2cc(NC(=O)c3nc4ccccc4s3)ccc2OC[C@@H](C)N(Cc2ccccc2)C[C@H]1C,inactive: 1.06
18,Cc1ccc(S(=O)(=O)N(C)C[C@@H]2Oc3ccc(NC(=O)CCCN(C)C)cc3CC(=O)N([C@H](C)CO)C[C@@H]2C)cc1,inactive: 0.994
19,C[C@@H]1CN([C@@H](C)CO)C(=O)Cc2cc(NS(C)(=O)=O)ccc2O[C@@H]1CN(C)S(=O)(=O)c1ccc(Cl)cc1,inactive: 0.984

row,SMILES,relative growth
1,C[C@@H]1CCCCO[C@H](CN(C)Cc2ccc(C(F)(F)F)cc2)[C@H](C)CN([C@H](C)CO)C(=O)c2cc(NS(=O)(=O)c3cn(C)cn3)ccc2O1,inactive: 0.979
2,C[C@@H]1CN([C@@H](C)CO)C(=O)c2cc(NS(=O)(=O)c3ccc(Cl)cc3)ccc2O[C@@H](C)CCCCO[C@H]1CN(C)S(=O)(=O)c1cccs1,inactive: 1.04
3,C[C@H]1CN([C@@H](C)CO)C(=O)Cc2cc(NC(=O)NC3CCCCC3)ccc2O[C@@H]1CN(C)Cc1ccc(C(=O)Nc2ccccc2N)cc1,inactive: 0.99
4,Nc1cccc2c1C(=O)N([C@H]1CCC(=O)NC1=O)C2=O,inactive: 1.02
5,O=C(C[C@H]1CC[C@H]2[C@@H](COC[C@@H](O)CN2C(=O)c2ccccn2)O1)NC1CCC1,inactive: 0.974
6,Cc1ccc(S(=O)(=O)Nc2ccc3c(c2)C(=O)N([C@@H](C)CO)C[C@H](C)[C@@H](CN(C)Cc2ccc4c(c2)OCO4)OCCCC[C@H](C)O3)cc1,inactive: 0.986
7,C[C@@H]1CN([C@H](C)CO)C(=O)c2cc(NC(=O)c3ccccc3)ccc2O[C@@H](C)CCCCO[C@@H]1CN(C)Cc1ccc(Cl)c(Cl)c1,inactive: 1.04
8,C[C@H](CO)N1C[C@H](C)[C@H](CN(C)Cc2ccc(Oc3ccccc3)cc2)Oc2ccc(NS(=O)(=O)c3ccc(F)cc3)cc2C1=O,inactive: 0.977
9,C[C@H]1CN([C@@H](C)CO)S(=O)(=O)c2ccc(Br)cc2O[C@@H]1CN(C)S(=O)(=O)c1ccc(F)cc1,inactive: 0.998
10,CC(C)NC(=O)Nc1cccc2c1O[C@H](CN(C)S(=O)(=O)c1ccccc1)[C@@H](C)CN([C@@H](C)CO)C2=O,inactive: 1.01
11,COc1nc(C#N)nc(N2CCCCC2)n1,inactive: 0.975
12,CCCC1OC2CC3C4CCC5=CC(=O)C=CC5(C)C4C(O)CC3(C)C2(C(=O)CO)O1 (configuration not stated),inactive: 1.05
13,O=C(CN1CCOCC1)N[C@H]1CC[C@H](CCNC(=O)C2CCC2)O[C@H]1CO,inactive: 0.996
14,C=C(/C=C/CNS(=O)(=O)c1ccc(C)cc1)[C@H](O)[C@H]1CCCN1S(=O)(=O)c1ccccc1[N+](=O)[O-],inactive: 0.986
15,C[C@H]1CN([C@@H](C)CO)C(=O)Cc2cc(NC(=O)Nc3cccc4ccccc34)ccc2O[C@@H]1CN(C)Cc1ccccc1,inactive: 1.03
16,C[C@@H]1CN([C@@H](C)CO)C(=O)c2cc(NC(=O)Nc3ccc(F)cc3)ccc2O[C@@H](C)CCCCO[C@H]1CN(C)Cc1ccc(C(=O)O)cc1,inactive: 1.02
17,O=C1N[C@@H](Cc2c[nH]c3ccccc23)COC(=O)[C@H](Cc2ccc(F)cc2)CCC=CC[C@H]1CC(=O)N(CCO)Cc1ccccc1,inactive: 1.01
18,CN1C(=O)c2cc(NC(=O)c3cnccn3)ccc2OC[C@H]2O[C@@H](CC(=O)NCC3CCCCC3)CC[C@@H]21,inactive: 0.987
